{"source": "PubChem BioAssay AID588342", "about": "(National Center for Advancing Translational Sciences (NCATS), 2011)", "note": "Out of some 360,000 compounds screened, about 25,000 (6.9%) were called active. Inconclusive results, whose numbers are uncertain, are shown with a selection of clear calls. The call rests on the fitted dose curve; in most records, active means well fitted inhibition curve with a large enough effect; inconclusive means small, poorly fitted or top-dose-only effect; inactive means flat fitted curve, though single readings scatter. Where the call is inconclusive, the potency comes from a doubtful curve fit. Potency means the concentration at half of the fitted maximal effect; tags describe the fitted curve by direction and shape.", "data": [{"molecular_target": "Luciferin 4-monooxygenase (Photinus pyralis) (UniProt P08659)", "sequence (P08659 whole entry, looked up)": "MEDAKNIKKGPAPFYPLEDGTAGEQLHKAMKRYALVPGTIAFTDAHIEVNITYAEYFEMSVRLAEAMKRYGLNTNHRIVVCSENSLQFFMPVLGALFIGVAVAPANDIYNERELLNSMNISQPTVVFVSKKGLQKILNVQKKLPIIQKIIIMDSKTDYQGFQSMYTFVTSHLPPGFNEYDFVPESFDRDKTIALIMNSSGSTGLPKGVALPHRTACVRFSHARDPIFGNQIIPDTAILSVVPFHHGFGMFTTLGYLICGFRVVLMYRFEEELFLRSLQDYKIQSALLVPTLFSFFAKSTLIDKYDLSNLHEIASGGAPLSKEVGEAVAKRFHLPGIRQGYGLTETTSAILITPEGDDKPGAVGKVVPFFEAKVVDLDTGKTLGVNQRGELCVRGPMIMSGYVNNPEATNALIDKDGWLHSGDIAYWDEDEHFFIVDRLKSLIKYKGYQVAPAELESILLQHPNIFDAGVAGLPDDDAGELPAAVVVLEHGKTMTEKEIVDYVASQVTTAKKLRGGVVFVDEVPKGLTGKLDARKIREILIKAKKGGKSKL", "test": "qHTS profiling assay for firefly luciferase inhibitor/activator using purifed enzyme and Km concentrations of substrates (counterscreen for miR-21 project); further: nearly all actives have a fitted effect of over 55% in size", "details": "purified FLuc, luminescence inhibition; series mostly up to 57.5 µM", "method_in_brief": "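Purified P. pyralis luciferase (10nM final) with 10uM D-luciferin and 10uM ATP (Km levels) in 50mM Tris acetate pH 7.5, 10mM Mg acetate, 0.01% Tween-20, 0.05% BSA; qHTS 6-point titration, ~60 µM downward; luminescence read.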", "values": [{"smiles": "O=C(c1ccccc1)c1nnc(-c2ccccc2F)o1", "Potency": "active: 0.536 µM"}, {"smiles": "CCn1c(C)nc2cc(C(=O)NNC(=S)Nc3ccccc3OC)ccc21", "Potency": "active: 19 µM"}, {"smiles": "CNc1nnc(CSc2nc3ccccc3s2)s1", "Potency": "inconclusive: 26.9 µM [inhibitor, single point]"}, {"smiles": "Fc1cccc(CSc2nnc3c(n2)[nH]c2ccccc23)c1", "Potency": "inconclusive: 1.51 µM [inhibitor, partial curve, poor fit]"}, {"smiles": "c1ccc(CNCC2COc3ccccc3O2)cc1", "note": "(configuration not stated)", "Potency": "inconclusive: 30.1 µM [inhibitor, partial curve, poor fit]"}, {"smiles": "O=C(O)c1ccc2c(c1)C(=O)N([C@H](Cc1ccc(O)c(O)c1)C(=O)O)C2=O", "Potency": "inconclusive: 23.9 µM [inhibitor, single point]"}, {"smiles": "CCc1cccc2c3c([nH]c12)C(CC)(CC(=O)O)OCC3", "note": "(configuration not stated)", "Potency": "inconclusive: 13.5 µM [inhibitor, partial curve, poor fit]"}, {"smiles": "COc1ccccc1Nc1nc(C)cs1", "Potency": "active: 26.9 µM"}, {"smiles": "Cc1ccc(-c2noc(CSc3nnc(-c4ccc(Cl)cc4)n3C)n2)cc1", "Potency": "inconclusive: 37.9 µM [inhibitor, partial curve, poor fit]"}, {"smiles": "O=C(c1cccs1)N1CCCc2cc(NS(=O)(=O)c3ccc(Cl)cc3)ccc21", "Potency": "inconclusive: 23.9 µM [inhibitor, partial curve]"}, {"smiles": "CC1CCC/C(=N/Nc2ccc([N+](=O)[O-])cc2[N+](=O)[O-])C1", "note": "(configuration not stated)", "Potency": "inconclusive: 26.9 µM [inhibitor, partial curve, poor fit]"}, {"smiles": "COc1cc(C=O)ccc1OCCSc1ccc(Cl)cc1", "Potency": "inconclusive: 23.9 µM [inhibitor, partial curve]"}, {"smiles": "Cc1cc(NC(=O)c2ccc3c(c2)C(=O)N(CC(C)C)C3=O)no1", "Potency": "inactive"}, {"smiles": "CC/C(C)=N/Nc1nc(-c2cc3cccc(OC)c3oc2=O)cs1", "Potency": "active: 8.49 µM"}, {"smiles": "COc1cc2c(cc1OC)-c1cc3ccc4c(c3c[n+]1CC2)OCO4", "Potency": "inconclusive: 16.9 µM [inhibitor, partial curve, poor fit]"}, {"smiles": "O=[N+]([O-])c1ccc(SCc2ccncc2)nc1", "Potency": "inactive"}, {"smiles": "CCc1ccc(/C=C2\\SC(N3CCOCC3)=NC2=O)cc1", "Potency": "inconclusive: 26.9 µM [inhibitor, partial curve, poor fit]"}, {"smiles": "CCN1CCN(Cc2ccc3c(c2)Cc2ccccc2-3)CC1", "Potency": "inactive"}, {"smiles": "CCOc1ccc2nc(N3CCCC(C(=O)Nc4cc(C)ccc4C)C3)sc2c1", "note": "(configuration not stated)", "Potency": "active: 2.39 µM"}, {"smiles": "NC(=O)c1c(NC(=O)C(=O)N2CCOCC2)sc2c1CCC2", "Potency": "inconclusive: 26.9 µM [inhibitor, partial curve, poor fit]"}, {"smiles": "Cc1ccc(NS(=O)(=O)c2cc(-c3cc(C)no3)ccc2C)c(Cl)c1", "Potency": "inconclusive: 9.53 µM [inhibitor, partial curve]"}, {"smiles": "Cc1ccc(C(=O)NCC(c2ccco2)N2CCCCC2)s1", "note": "(configuration not stated)", "Potency": "inconclusive: 26.9 µM [inhibitor, partial curve, poor fit]"}, {"smiles": "Cc1cc(C)c(C(=O)COC(=O)Cn2c(C)csc2=O)cc1C", "Potency": "active: 16.9 µM"}, {"smiles": "O=C(NNc1nc(-c2ccc(Br)cc2)cs1)c1ccco1", "Potency": "active: 8.49 µM"}, {"smiles": "CCOc1ccc(N/N=C(/C#N)C(N)=O)cc1", "Potency": "inconclusive: 16.9 µM [inhibitor, partial curve, poor fit]"}, {"smiles": "O=C(Oc1ccc(N2C(=O)CCC2=O)cc1)c1ccccc1Cl", "Potency": "active: 23.9 µM"}, {"smiles": "Cc1cccc(C(=O)N/N=C2\\CS(=O)(=O)N(C)c3ccsc32)c1", "Potency": "inconclusive: 23.9 µM [inhibitor, partial curve, poor fit]"}, {"smiles": "CCN(CC(=O)NCc1cccs1)C(=O)/C=C/c1cccc(OC)c1OC", "Potency": "inactive"}, {"smiles": "Cc1cccn2c(N)c(-c3ccccc3)nc12", "Potency": "active: 10.7 µM"}, {"smiles": "CCSc1ncc(Cl)c(C(=O)Nc2nc3ccc(Cl)cc3s2)n1", "Potency": "inconclusive: 7.57 µM [inhibitor, full curve]"}, {"smiles": "CN(C)c1cccc(C(=O)Nc2nc3ccc(S(=O)(=O)N4CCCC4)cc3s2)c1", "Potency": "inconclusive: 26.9 µM [inhibitor, partial curve, poor fit]"}, {"smiles": "O=C(Nc1ccc2c(c1)OCCO2)C1CCCN(S(=O)(=O)Cc2ccccc2)C1", "note": "(configuration not stated)", "Potency": "inconclusive: 26.9 µM [inhibitor, single point]"}, {"smiles": "Cn1nc(C(=O)OCC(=O)c2ccc(Br)cc2)c2ccccc2c1=O", "Potency": "inactive"}, {"smiles": "COc1ccc(NC(=O)CSC2=Nc3ccccc3N=C(c3ccc(F)cc3)C2)cc1OC", "Potency": "inactive"}, {"smiles": "Cc1ccc(-c2nnc(Oc3cccc(C)c3)c3ccccc23)cc1", "Potency": "inconclusive: 2.39 µM [inhibitor, partial curve, poor fit]"}, {"smiles": "O=C1c2cccc3c(N4CCCCC4)ccc(c23)C(=O)N1c1ccccn1", "Potency": "inconclusive: 30.1 µM [inhibitor, single point]"}, {"smiles": "COCCCn1c(=O)/c(=C\\c2cccc(OC)c2OC)s/c1=C(/C#N)C(=O)Nc1ccc(C(=O)O)cc1", "Potency": "inconclusive: 12 µM [inhibitor, partial curve]"}, {"smiles": "Cc1nn2cc(-c3ccccc3)nc2[nH]c1=O", "Potency": "inconclusive: 23.9 µM [inhibitor, partial curve, poor fit]"}, {"smiles": "Cc1ccc(CNC(=O)CSc2nnc(C)c3c(C)n(-c4ccccc4)nc23)cc1", "Potency": "inactive"}, {"smiles": "CCOCCn1c(-c2ccc(OC)cc2)nc2ccccc21", "Potency": "inconclusive: 23.9 µM [inhibitor, single point]"}, {"smiles": "Nc1nc(-c2sc3nc4c(cc3c2N)CCCC4)nc(N2CCOCC2)n1", "Potency": "active: 0.675 µM"}, {"smiles": "CN(C)C=Nc1ccccc1C1C=NNC1=O", "note": "(configuration not stated)", "Potency": "inconclusive: 23.9 µM [inhibitor, single point]"}, {"smiles": "COc1ccc(C(=O)Nc2c(Cl)cc(Cl)cc2C(=O)NCc2ccco2)cc1", "Potency": "inactive"}, {"smiles": "CC(C(=O)N1c2ccccc2CCc2ccccc21)n1nnc(-c2ccc(N(C)C)cc2)n1", "note": "(configuration not stated)", "Potency": "inconclusive: 10.7 µM [inhibitor, partial curve, poor fit]"}, {"smiles": "CCc1nnc(NS(=O)(=O)c2ccc(NC(=O)/C=C/c3ccc(F)cc3)cc2)s1", "Potency": "inconclusive: 26.9 µM [inhibitor, single point]"}, {"smiles": "Cc1csc(NC(=O)c2ccc3c(c2)OCO3)n1", "Potency": "active: 3.38 µM"}, {"smiles": "Cc1cccc2nc(CSc3nc4[nH]ncc4c(=O)n3-c3ccccc3Cl)cc(=O)n12", "Potency": "inconclusive: 26.9 µM [inhibitor, single point]"}, {"smiles": "O=C(Nc1nc(-c2ccco2)c(-c2ccco2)s1)c1ccco1", "Potency": "inconclusive: 23.9 µM [inhibitor, single point]"}, {"smiles": "COc1ccccc1CCC(=O)Nc1nc2ccccc2[nH]1", "Potency": "active: 13.5 µM"}, {"smiles": "O=C(O)CC(NC(=O)CCC1CCCCC1)c1cc([N+](=O)[O-])ccc1Cl", "note": "(configuration not stated)", "Potency": "inconclusive: 19 µM [inhibitor, partial curve, poor fit]"}, {"smiles": "COC(=O)c1sc2nc(-c3ccco3)ccc2c1N", "Potency": "active: 0.379 µM"}, {"smiles": "COc1ccc(S(=O)(=O)N2CCc3ccccc32)cc1C(=O)O", "Potency": "inactive"}, {"smiles": "O=C(Nc1ncc([N+](=O)[O-])s1)c1ccccc1Br", "Potency": "inconclusive: 16.9 µM [inhibitor, partial curve, poor fit]"}, {"smiles": "Cc1ccc2c(nc3s/c(=C/c4cccs4)c(=O)n32)c1C", "Potency": "active: 1.9 µM"}, {"smiles": "COc1ccccc1NC(=O)CSc1nnnn1-c1ccc(C)cc1", "Potency": "inconclusive: 19 µM [inhibitor, partial curve, poor fit]"}, {"smiles": "COc1ccc(OC)c(C(=O)COC(=O)c2ccccc2O)c1", "Potency": "active: 12 µM"}, {"smiles": "CS(=O)(=O)c1ccc(N)c(SSc2cc(S(C)(=O)=O)ccc2N)c1", "Potency": "inconclusive: 8.49 µM [inhibitor, partial curve]"}, {"smiles": "O=C(CCS(=O)(=O)c1ccc(Br)s1)N1CCc2ccccc21", "Potency": "inconclusive: 26.9 µM [inhibitor, single point]"}, {"smiles": "COc1ccc(-c2cc(C(=O)n3cnc4ccccc43)c3ccccc3n2)cc1", "Potency": "active: 5.36 µM"}, {"smiles": "Cc1cccc(CSc2nc(=O)c3c(n2C)NC(=O)CC3c2cc(F)cc(F)c2)c1", "note": "(configuration not stated)", "Potency": "inconclusive: 26.9 µM [inhibitor, partial curve, poor fit]"}, {"smiles": "O=C(CSc1nc2ccccc2c(=O)[nH]1)Nc1ccccc1C(F)(F)F", "Potency": "inactive"}, {"smiles": "Cc1cc(OCC(=O)NC(Cc2c[nH]c3ccccc23)C(=O)O)ccc1Cl", "note": "(configuration not stated)", "Potency": "inconclusive: 13.5 µM [inhibitor, partial curve]"}, {"smiles": "CCOC(=O)c1ccccc1NC(=O)COC(=O)C1CCCC1", "Potency": "inactive"}, {"smiles": "COc1ccc(C(=O)CN2Cc3ccccc3C2=N)cc1", "Potency": "active: 10.7 µM"}, {"smiles": "Cc1cccc(OCCCOc2cccc3cccnc23)c1C", "Potency": "inconclusive: 23.9 µM [inhibitor, single point]"}, {"smiles": "O=C(OCC(=O)c1ccc[nH]1)c1ccc2ccccc2n1", "Potency": "inconclusive: 23.9 µM [inhibitor, single point]"}, {"smiles": "O=C(O)c1ccccc1CSc1nc2ccccc2o1", "Potency": "active: 10.7 µM"}, {"smiles": "O=C(COc1ccc(/C=N/NC(=O)c2cc3ccccc3o2)cc1Br)Nc1ccccc1", "Potency": "inconclusive: 0.953 µM [inhibitor, partial curve, poor fit]"}, {"smiles": "O=C(Cn1c2ccc(F)cc2c2nc3n(c(=O)c21)CCS3)NCC1CCCO1", "note": "(configuration not stated)", "Potency": "inactive"}, {"smiles": "CCNC(=S)Nc1cc(-c2ccc(Cl)cc2)[nH]n1", "Potency": "inconclusive: 19 µM [inhibitor, partial curve, poor fit]"}, {"smiles": "COc1ccccc1NC(=O)c1csc2c1CCC(C)C2", "note": "(configuration not stated)", "Potency": "inconclusive: 30.1 µM [inhibitor, single point]"}, {"smiles": "Oc1ccc(Nc2ncnc3ccccc23)cc1", "Potency": "inconclusive: 26.9 µM [inhibitor, single point]"}]}]}
